Reference: paper PMC12136788
The list shows a part of the results.

B1: chr3:176740097:176740098:-_ENSG00000177565_ENST00000430069|hu_mus|hu_hu_hu_mus_True|48_108 (ssRNA)
RNA: GGGAGUUCUACAGUCCGACGAUCUGUUUUUUACACCACAAAAGGAGGCACUUUCAGUAUCUGCAAAAGGUGUUUAGUCCUAAAACAUACUUACCUAGAGGAUAACUCAGGAAAACAAUCUGUUACACUCUAAGACCUACUCCACAACAGAGGAUUGAGCAUCA
B2: chr1:6238667:6238668:+_ENSMUSG00000025907_ENSMUST00000027040|mus_mus|motif|central (ssRNA)
RNA: GGGAGUUCUACAGUCCGACGAUCCAUCAUUUCUGGACUUUGUGGAUCACUUAUAGGGUUUGGAGACGAUAAAUUUUCUUCGGUCACAAACUCAUUCACAGCAGACAUAAAGUCAGACUCAGGGCUUUCUGCUAAUGAAUCCAACAACAGAGGAUUGAGCAUCA
B3: chr1:52991732:52991733:-_ENSG00000134744_ENST00000257177|hu_hu|FALSE|FALSE (ssRNA)
RNA: GGGAGUUCUACAGUCCGACGAUCUUUAGGACCUGGAAGGUUGGCAGCAUUUACUUUACAUGAUUUAACUUCUGUUUUUUCUAUACAAAUAUCAUUUUGCUUAUUUUUUUUACUACUAUUCCUAUUUGGAGAGCUGUUCUCAAUCAACAGAGGAUUGAGCAUCA
B4: chr2:219093484:219093485:+_ENSG00000163466_ENST00000315717|hu_hu|FALSE|FALSE (ssRNA)
RNA: GGGAGUUCUACAGUCCGACGAUCGAAUUUCAAAGAAAUACUGACCAUCACUUUUGUUUUGUCUCCAUUAGGAUUUGAAAUAUGAUAGAGGACCCCAUCGAAAUCUGCAAAUGUUACUUCUACUGCUUCCGGUUUGUUUCCGGCCAACAGAGGAUUGAGCAUCA
B5: chr10:33214929:33214930:-_ENSG00000150093_ENST00000302278|hu_hu|hu_hu_hu_mus_True|18_88 (ssRNA)
RNA: GGGAGUUCUACAGUCCGACGAUCAACAAGUUCAUUGAAAAACUCUCCUUUAUUAGUAAGACUAAGCACAUUUUUGUAGCUAAAUGGGCUGGUGCAGUUUUGUUCACUUGUACAAGGGUUCCUGAGCUUUGCUGGGGUUGUGCUCAACAGAGGAUUGAGCAUCA
B6: 39510194_39511413_1180_CDS_ENSG00000109814_ENST00000316423|human|control|control (ssRNA)
RNA: GGGAGUUCUACAGUCCGACGAUCAUAACGAGCUACUUCUGGCAAAUUCAGAGCCUCACAGAGAUAAACCAAAUUCAGAACAUCCUUUUGGAAACAGCUCCCACCAAACCCAACACUGGCUUUUAGAAACUUGUUUCCAAUUCUCAACAGAGGAUUGAGCAUCA

Each binder was assayed against T1, UNK ZnF1-3 (human, UniProt Q9C0B0 31-174) (assay: nsRBNS (natural sequence RNA bind-n-seq); RBNS binding buffer (assumed for nsRBNS): 25 mM Tris pH 7.5, 150 mM KCl, 3 mM MgCl2, 0.01% Triton X-100, 500 ug/ml BSA, 20 U/ml SUPERase-In, 4 C; UNK is unkempt and MSI1 is Musashi-1; names of the RNAs are library labels; protein concentration not given here; high values mean tight binding).
T1 sequence: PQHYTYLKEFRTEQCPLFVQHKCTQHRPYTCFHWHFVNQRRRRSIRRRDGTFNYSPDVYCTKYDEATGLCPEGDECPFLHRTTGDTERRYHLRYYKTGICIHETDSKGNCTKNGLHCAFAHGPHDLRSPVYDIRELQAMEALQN
B1 showed a binding signal of 1.02 enrichment R.
Work on B2 yielded a binding signal of 1.09 enrichment R.
Binder B3 has a binding signal of 0.812 enrichment R.
B4 gave a binding signal of 1.29 enrichment R.
B5 gave a binding signal of 0.815 enrichment R.
In the case of B6, the binding signal is reported as 1.21 enrichment R.
